# Experimental data from the supplement of paper PMC8728848.
# The other results are listed elsewhere or left out.
# B1: CFEM-PPm (Pichia pastoris), F2QPV1 (protein)
# chain: AVATPPACLLACAAEVVKESSDCDALNNIQCICENEGSAIHACLESTCPDGLSSTALQSFEDVCE
# Tests used:
# Assay in all cases: glycan array binding signal (z-score within array); higher = stronger binding
# Conditions in all cases: glycan notation: IUPAC condensed, linker removed
# [1] = target: Neu5Ac(a2-3)Gal(b1-4)GlcNAc(b1-3)[Neu5Ac(a2-3)Gal(b1-4)GlcNAc(b1-6)]GalNAc
# Outline: (§1)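 Glycan array data came from 3228 arrays in the Consortium for Functional Glycomics database, and only arrays with an available protein sequence were kept. Glycan names were put into IUPAC-condensed notation, and columns mapping to the same glycan were averaged. The binding signal is a within-array Z-score, averaged across arrays of one protein sequence run at different concentrations or buffers and across linkers. A negative Z-score can be read as non-binding.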
# [2] = target: Neu5Ac(a2-3)Gal(b1-4)GlcNAc(b1-6)GalNAc
# Outline: as §1
# [3] = target: Neu5Ac(a2-3)Gal(b1-4)GlcNAc(b1-6)[Gal(b1-3)]GalNAc
# Outline: as §1
# [4] = target: Neu5Ac(a2-3)Gal(b1-4)GlcNAc(b1-6)[Neu5Ac(a2-3)Gal(b1-3)]GalNAc
# Outline: as §1
# [5] = target: Neu5Ac(a2-3)Gal(b1-4)GlcNAc6S
# Outline: as §1
# [6] = target: Neu5Ac(a2-3)Gal(b1-4)[Fuc(a1-3)]GlcNAc
# Outline: as §1
# [7] = target: Neu5Ac(a2-3)Gal(b1-4)[Fuc(a1-3)]GlcNAc(b1-2)Man
# Outline: as §1
# [8] = target: Neu5Ac(a2-3)Gal(b1-4)[Fuc(a1-3)]GlcNAc(b1-3)Gal
# Outline: as §1
# [9] = target: Neu5Ac(a2-3)Gal(b1-4)[Fuc(a1-3)]GlcNAc(b1-3)Gal(b1-4)GlcNAc
# Outline: as §1
# [10] = target: Neu5Ac(a2-3)Gal(b1-4)[Fuc(a1-3)]GlcNAc(b1-3)Gal(b1-4)[Fuc(a1-3)]GlcNAc(b1-3)Gal(b1-4)[Fuc(a1-3)]GlcNAc
# Outline: as §1
# [11] = target: Neu5Ac(a2-3)Gal(b1-4)[Fuc(a1-3)]GlcNAc(b1-3)GalNAc
# Outline: as §1
# [12] = target: Neu5Ac(a2-3)Gal(b1-4)[Fuc(a1-3)]GlcNAc(b1-6)[Gal(b1-3)]GalNAc
# Outline: as §1
# [13] = target: Neu5Ac(a2-3)Gal(b1-4)[Fuc(a1-3)]GlcNAc(b1-6)[Neu5Ac(a2-3)Gal(b1-3)]GalNAc
# Outline: as §1
# [14] = target: Neu5Ac(a2-3)Gal(b1-4)[Fuc(a1-3)]GlcNAc6S
# Outline: as §1
# [15] = target: Neu5Ac(a2-3)Gal6S(b1-4)GlcNAc
# Outline: as §1
# [16] = target: Neu5Ac(a2-3)Gal6S(b1-4)[Fuc(a1-3)]GlcNAc
# Outline: as §1
# [17] = target: Neu5Ac(a2-3)GalNAc
# Outline: as §1
# [18] = target: Neu5Ac(a2-3)GalNAc(b1-4)GlcNAc
# Outline: as §1
# [19] = target: Neu5Ac(a2-3)[GalNAc(b1-4)]Gal(b1-4)Glc
# Outline: as §1
# [20] = target: Neu5Ac(a2-3)[GalNAc(b1-4)]Gal(b1-4)GlcNAc
# Outline: as §1
# [21] = target: Neu5Ac(a2-3)[GalNAc(b1-4)]Gal(b1-4)GlcNAc(b1-3)GalNAc
# Outline: as §1
# [22] = target: Neu5Ac(a2-3)[Neu5Ac(a2-6)]GalNAc
# Outline: as §1
# [23] = target: Neu5Ac(a2-6)Gal
# Outline: as §1
# [24] = target: Neu5Ac(a2-6)Gal(b1-3)GlcNAc(b1-3)[Gal(b1-4)GlcNAc(b1-6)]Gal(b1-4)Glc
# Outline: as §1
# [25] = target: Neu5Ac(a2-6)Gal(b1-4)Glc
# Outline: as §1
# [26] = target: Neu5Ac(a2-6)Gal(b1-4)GlcNAc
# Outline: as §1
# [27] = target: Neu5Ac(a2-6)Gal(b1-4)GlcNAc(b1-2)Man
# Outline: as §1
# [28] = target: Neu5Ac(a2-6)Gal(b1-4)GlcNAc(b1-2)Man(a1-3)Man(b1-4)GlcNAc(b1-4)GlcNAc
# Outline: as §1
# [29] = target: Neu5Ac(a2-6)Gal(b1-4)GlcNAc(b1-2)Man(a1-3)[Gal(b1-4)GlcNAc(b1-2)Man(a1-6)]Man(b1-4)GlcNAc(b1-4)GlcNAc
# Outline: as §1
# [30] = target: Neu5Ac(a2-6)Gal(b1-4)GlcNAc(b1-2)Man(a1-3)[GlcNAc(b1-2)Man(a1-6)]Man(b1-4)GlcNAc(b1-4)GlcNAc
# Outline: as §1
# [31] = target: Neu5Ac(a2-6)Gal(b1-4)GlcNAc(b1-2)Man(a1-3)[GlcNAc(b1-4)][Neu5Ac(a2-6)Gal(b1-4)GlcNAc(b1-2)Man(a1-6)]Man(b1-4)GlcNAc(b1-4)GlcNAc
# Outline: as §1
# [32] = target: Neu5Ac(a2-6)Gal(b1-4)GlcNAc(b1-2)Man(a1-3)[Man(a1-6)]Man(b1-4)GlcNAc(b1-4)GlcNAc
# Outline: as §1
# [33] = target: Neu5Ac(a2-6)Gal(b1-4)GlcNAc(b1-2)Man(a1-3)[Neu5Ac(a2-3)Gal(b1-4)GlcNAc(b1-2)Man(a1-6)]Man(b1-4)GlcNAc(b1-4)GlcNAc
# Outline: as §1
# [34] = target: Neu5Ac(a2-6)Gal(b1-4)GlcNAc(b1-2)Man(a1-3)[Neu5Ac(a2-6)Gal(b1-4)GlcNAc(b1-2)Man(a1-6)]Man(b1-4)GlcNAc(b1-4)GlcNAc
# Outline: as §1
# [35] = target: Neu5Ac(a2-6)Gal(b1-4)GlcNAc(b1-2)Man(a1-3)[Neu5Ac(a2-6)Gal(b1-4)GlcNAc(b1-2)Man(a1-6)]Man(b1-4)GlcNAc(b1-4)[Fuc(a1-6)]GlcNAc
# Outline: as §1
# [36] = target: Neu5Ac(a2-6)Gal(b1-4)GlcNAc(b1-2)Man(a1-6)Man(b1-4)GlcNAc(b1-4)GlcNAc
# Outline: as §1
# [37] = target: Neu5Ac(a2-6)Gal(b1-4)GlcNAc(b1-2)Man(a1-6)[Gal(b1-4)GlcNAc(b1-2)Man(a1-3)]Man(b1-4)GlcNAc(b1-4)GlcNAc
# Outline: as §1
# [38] = target: Neu5Ac(a2-6)Gal(b1-4)GlcNAc(b1-2)Man(a1-6)[GlcNAc(b1-2)Man(a1-3)]Man(b1-4)GlcNAc(b1-4)GlcNAc
# Outline: as §1
# [39] = target: Neu5Ac(a2-6)Gal(b1-4)GlcNAc(b1-2)Man(a1-6)[Man(a1-3)]Man(b1-4)GlcNAc(b1-4)GlcNAc
# Outline: as §1
# [40] = target: Neu5Ac(a2-6)Gal(b1-4)GlcNAc(b1-2)[Neu5Ac(a2-6)Gal(b1-4)GlcNAc(b1-4)]Man(a1-3)[GlcNAc(b1-4)][Neu5Ac(a2-6)Gal(b1-4)GlcNAc(b1-2)[Neu5Ac(a2-6)Gal(b1-4)GlcNAc(b1-6)]Man(a1-6)]Man(b1-4)GlcNAc(b1-4)GlcNAc
# Outline: as §1
# [41] = target: Neu5Ac(a2-6)Gal(b1-4)GlcNAc(b1-2)[Neu5Ac(a2-6)Gal(b1-4)GlcNAc(b1-4)]Man(a1-3)[GlcNAc(b1-4)][Neu5Ac(a2-6)Gal(b1-4)GlcNAc(b1-4)Man(a1-6)]Man(b1-4)GlcNAc(b1-4)GlcNAc
# Outline: as §1
# [42] = target: Neu5Ac(a2-6)Gal(b1-4)GlcNAc(b1-2)[Neu5Ac(a2-6)Gal(b1-4)GlcNAc(b1-6)]Man(a1-6)[Neu5Ac(a2-6)Gal(b1-4)GlcNAc(b1-2)Man(a1-3)][GlcNAc(b1-4)]Man(b1-4)GlcNAc(b1-4)GlcNAc
# Outline: as §1
# [43] = target: Neu5Ac(a2-6)Gal(b1-4)GlcNAc(b1-3)Gal(b1-3)GlcNAc
# Outline: as §1
# [44] = target: Neu5Ac(a2-6)Gal(b1-4)GlcNAc(b1-3)Gal(b1-4)GlcNAc
# Outline: as §1
# [45] = target: Neu5Ac(a2-6)Gal(b1-4)GlcNAc(b1-3)Gal(b1-4)GlcNAc(b1-2)Man(a1-3)[Neu5Ac(a2-6)Gal(b1-4)GlcNAc(b1-3)Gal(b1-4)GlcNAc(b1-2)Man(a1-6)]GalNAc
# Outline: as §1
# [46] = target: Neu5Ac(a2-6)Gal(b1-4)GlcNAc(b1-3)Gal(b1-4)GlcNAc(b1-3)Gal(b1-4)GlcNAc
# Outline: as §1
binder,measurement,setting,value
B1,glycan array binding signal (z-score),[1],-0.046
same,glycan array binding signal (z-score),[2],-0.282
same,glycan array binding signal (z-score),[3],0.188
same,glycan array binding signal (z-score),[4],-0.376
same,glycan array binding signal (z-score),[5],-0.23
same,glycan array binding signal (z-score),[6],-0.366
same,glycan array binding signal (z-score),[7],0.005
same,glycan array binding signal (z-score),[8],0.048
same,glycan array binding signal (z-score),[9],0.148
same,glycan array binding signal (z-score),[10],-0.34
same,glycan array binding signal (z-score),[11],0.862
same,glycan array binding signal (z-score),[12],0.784
same,glycan array binding signal (z-score),[13],0.431
same,glycan array binding signal (z-score),[14],-0.308
same,glycan array binding signal (z-score),[15],-0.43
same,glycan array binding signal (z-score),[16],-0.32
same,glycan array binding signal (z-score),[17],-0.245
same,glycan array binding signal (z-score),[18],-0.26
same,glycan array binding signal (z-score),[19],-0.369
same,glycan array binding signal (z-score),[20],-0.318
same,glycan array binding signal (z-score),[21],-0.344
same,glycan array binding signal (z-score),[22],-0.168
same,glycan array binding signal (z-score),[23],-0.251
same,glycan array binding signal (z-score),[24],-0.189
same,glycan array binding signal (z-score),[25],-0.214
same,glycan array binding signal (z-score),[26],-0.345
same,glycan array binding signal (z-score),[27],-0.275
same,glycan array binding signal (z-score),[28],-0.215
same,glycan array binding signal (z-score),[29],-0.322
same,glycan array binding signal (z-score),[30],-0.439
same,glycan array binding signal (z-score),[31],-0.394
same,glycan array binding signal (z-score),[32],-0.253
same,glycan array binding signal (z-score),[33],-0.378
same,glycan array binding signal (z-score),[34],-0.193
same,glycan array binding signal (z-score),[35],-0.204
same,glycan array binding signal (z-score),[36],-0.399
same,glycan array binding signal (z-score),[37],-0.317
same,glycan array binding signal (z-score),[38],-0.363
same,glycan array binding signal (z-score),[39],-0.345
same,glycan array binding signal (z-score),[40],-0.249
same,glycan array binding signal (z-score),[41],-0.327
same,glycan array binding signal (z-score),[42],-0.267
same,glycan array binding signal (z-score),[43],-0.415
same,glycan array binding signal (z-score),[44],-0.288
same,glycan array binding signal (z-score),[45],-0.081
same,glycan array binding signal (z-score),[46],-0.344
